The full ranking holds about 33,000 sequences; the median of “E-score (-0.5 to 0.5)” is about -0.056, and the highest 2% start at about 0.38. Some of the results follow.
Target: Stb4 (UniProt P50104)
Test: PBM E-score (8-mer binding enrichment) (E-score (-0.5 to 0.5)); higher = stronger / more preferred TF binding; most listed sequences are background and not binding sites
Details: protein concentration: 200 nM; construct: GST-DNA-binding domain
In short: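 Bound GST-tagged yeast transcription factors, applied at about 100-200 nM to double-stranded universal all-10-mer Agilent arrays, were detected with fluorescent anti-GST. Scans were normalised with masliner. A modified Wilcoxon-Mann-Whitney statistic, the E-score, was assigned to each ungapped eight-base word pooled with its reverse complement by the Universal PBM Analysis Suite.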

Row | Sequence | PBM E-score
1 | GAAAAGCA | -0.0274
2 | CACCAGAC | 0.02
3 | ATACCCAC | 0.102
4 | ATTCGACG | -0.187
5 | AGTGTGGA | -0.0148
6 | TATTCAAA | -0.0679
7 | GACGAAAC | -0.0204
8 | ACATTCCC | 0.13
9 | GCGCGCGA | 0.0498
10 | ACAGATGT | -0.0573
11 | AGTCGACT | -0.232
12 | ACTTGGAG | -0.16
13 | AGGTTTGC | -0.246
14 | ACTATGGC | -0.151
15 | GGTGCGCA | 0.139
16 | AAGCGGTA | 0.0224
17 | ACGCGAGG | -0.191
18 | CCTCTATC | -0.0792
19 | GCTTCACC | -0.0947
20 | CTCATCAG | -0.112
21 | TCTCCCAA | -0.163
22 | ATGTTTAG | -0.0778

Row | Sequence | PBM E-score
23 | AGGATTTA | -0.00207
24 | AGGACCGA | 0.132
25 | CAGCGTGA | -0.26
26 | AGTGTCAT | -0.0875
27 | AAGATAAA | -0.0146
28 | AAGGGCCT | -0.119
29 | GAAACCGC | 0.166
30 | AATGTTGG | -0.165
31 | ATTTAACG | 0.101
32 | CGTAGCCC | 0.0233
33 | ACGTATCT | -0.176
34 | CCAATGCC | 0.0513
35 | ATCGATTA | -0.0251
36 | GCACTACA | -0.187
37 | ATGACACC | -0.176
38 | ACTCCTAG | -0.16
39 | GGGGCTGA | -0.302
40 | TCGGAACA | 0.479
41 | AATGGACG | -0.155
42 | GAGCGTCC | -0.111
43 | AGAGTCGC | -0.1
44 | CGGTACAC | 0.103

Row | Sequence | PBM E-score
45 | GACTGATA | 0.0385
46 | AGCTCCGC | 0.121
47 | AACAAGAC | -0.0289
48 | ACTAACGC | -0.139
49 | ACTGAACC | 0.0702
50 | CTGATGTC | 0.0602
51 | GGGCATCA | -0.088
52 | AACGGCGA | 0.0859
53 | AATATCTG | 0.0322
54 | TAGTTCCA | -0.142
55 | CACTGGGA | -0.284
56 | AATGGTGC | 0.115
57 | AGGGGGGA | -0.258
58 | ATTCTTCA | -0.173
59 | CCTGGCAC | -0.00805
60 | AATTAGTG | -0.105
61 | CTATTAAA | -0.0169
62 | TCGTTCAA | -0.119
63 | GAATCCCA | -0.105
64 | CAGGGCCG | 0.0628
65 | CGGAGTCA | 0.254
66 | AGTATAAC | -0.0469

Row | Sequence | PBM E-score
67 | GGTTAACA | 0.149
68 | CCCGGCTA | 0.329
69 | CAACCCTC | -0.0946
70 | ATTGCTGC | -0.0345
71 | ATCTTAAC | -0.187
72 | CAAAAAGC | 0.0643
73 | CGCGCGGC | 0.272
74 | AACAATTC | -0.059
75 | AGGTTTAG | -0.0776
76 | ATTGTCCA | -0.0679
77 | CAGGTCTC | -0.181
78 | TATCCCGA | 0.398
79 | ATCATAAC | 0.113
80 | GGATCTTA | 0.175
81 | CCAGTAGA | -0.308
82 | CTAGAAGC | -0.122
83 | AGCATTCG | 0.0196
84 | ACCTTAGA | 0.0092
85 | AGAAGCTG | -0.0865
86 | AGGATGCC | 0.0566
87 | ACAGATTA | -0.0875
88 | AGTAGAAC | -0.152

From the supplement of paper PMC3334620
